# This list was built around the results that the source calls inconclusive (neither active nor inactive); the mix of calls is not that of the screen. For some assays here: Potencies beside an inconclusive call are fits to weak or partial responses and may not hold up. Activity calls are given as the source filed them. Calls come from the whole dose curve; as a rule, active = well fitted curve in the direction sought with a large enough effect; inconclusive = small, poorly fitted or top-dose-only effect, or another doubt; inactive = no such curve, though single readings can be large; an effect the other way counts as inactive or inconclusive.
# Experiments:
# [1] = OV-KATE Cancer Cell Toxicity qHTS against the NCATS CANVASS Library (AID 1347345); note: potency is the fitted concentration of half-maximal effect
# In short: (§1)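 Cells were seeded at 1000 per well, allowed 4 h at 37 degrees C/5% CO2, then pin-treated with an 11-point compound series. After 72 h, viability was read as CellTiter-Glo luminescence following 15min at room temperature.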
# [2] = OV-SAHO Cancer Cell Toxicity qHTS against the NCATS CANVASS Library (AID 1347348); settings: OV-SAHO viability, CellTiter-Glo luminescence, 72 h; activity change, negative = cytotoxicity: at 38.3 µM (top of the series); note: potency is the fitted concentration of half-maximal effect; nearly all actives have a fitted effect of over 55% in size
# In short: as §1
# [3] = SDT Cancer Cell Toxicity qHTS against the NCATS CANVASS Library (AID 1347365);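 note: SDT canine glioma cells 500 per well in 1536 well plates; % is set by controls: 0 for no effect and ±100 for the full control effect; nearly all actives have a fitted effect of over 60% in size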
# In short: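 Cytotoxicity is measured from cellular ATP: compounds in an 11-point concentration series are pinned onto SDT cells, incubated 72 hr at 37C, then CellTiterGlo is added and luminescence read.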
# [4] = G06 Cancer Cell Toxicity qHTS against the NCATS CANVASS Library (AID 1347368); note: potency is the fitted concentration of half-maximal effect; nearly all actives have a fitted effect of over 60% in size
# In short: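 Cells were plated at 500 per well, then compounds were added over an 11-point range. After 72 hr at 37C, CellTiterGlo was added and luminescence measured as ATP content.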
# [5] = qHTS for Hypoxia signaling pathway (HIF-1) agonists against the NCATS CANVASS Library (AID 1347375); note: potency is the fitted concentration of half-maximal effect
# In short: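 Cells plated and rested 5 h, compounds pinned in DMSO across 11 concentrations, incubated 17 h at 37C, loaded with CCF4-AM for 2 h, fluorescence read at 460 and 530 nm, then CellTiter-Glo luminescence measured for viability and normalization.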
# [6] = 10-beta competent E. coli microbial cell viability qHTS against the NCATS CANVASS Library (AID 1347376); note: potency is the fitted concentration of half-maximal effect
# In short: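 Bacterial suspension diluted to 0.2 OD was dosed with compounds, 11-point series, then held overnight at 37C. BacTiter-Glo reagent was added, and after 20 min at room temperature ATP-dependent luminescence was measured.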
# [7] = qHTS for Inflammasome Signaling Inhibitors: IL-1-beta AlphaLISA screen against the NCATS CANVASS Library (AID 1347379);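 note: human THP-1 cells primed with LPS then triggered with ATP; secreted IL-1B measured as AlphaLISA emission at 615 nm; potency is the fitted concentration of half-maximal effect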
# In short: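 Secreted IL-1B from human THP-1 cells quantified by AlphaLISA 16 hr after compound addition (final up to 57.5 uM). A 1 hr compound pretreatment preceded inflammasome activation with 250 ng/mL LPS plus 1.25 mM ATP (final).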
# [8] = qHTS for activators of Nrf2/ARE signaling pathway screened against the NCATS CANVASS Library (AID 1347391); note: potency is the fitted concentration of half-maximal effect; nearly all actives have a fitted effect of over 60% in size
# In short: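 Beta-lactamase reporter signal, read as 460 and 530 nm emission under 405 nm excitation after 2 h CCF4 loading, reflected ARE activation in HepG2 cells treated 16 h with an 11-point series.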
# [9] = qHTS for inhibitors of ER calcium dysfunction: SERCaMP assay screened against the NCATS CANVASS Library (AID 1347393); settings: SH-SY5Y GLuc-SERCaMP (Gaussia luciferase released on ER calcium loss) secretion, thapsigargin, luminescence; activity change, negative = inhibition: at 76.6 µM (top of the series) unless noted;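 note: % is set by controls: 0 for no effect and ±100 for the full control effect; lower secreted reporter signal means inhibitor of ER calcium depletion; nearly all actives have a fitted effect of over 40% in size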
# In short: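 Thapsigargin-induced ER calcium depletion drives GLuc-SERCaMP secretion from SH-SY5Y cells; compounds given 16 h beforehand were scored by lowered coelenterazine luminescence after 4 h challenge.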
# [10] = qHTS for inhibitors of Wild type Zika virus screened against the NCATS CANVASS Library (AID 1347396); note: potency is the fitted concentration of half-maximal effect
# In short: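 Vero 766 cells, 1000/well, o/n attach; cpds pin-transferred (11-pt qHTS); WT Zika added; 72 h, 37C, 5% CO2; CellTiter Glo lumi. Uninfected + vehicle = 100% inhibition.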
# [11] = UWB1.289 Cancer Cell Toxicity qHTS against the NCATS CANVASS Library (AID 1347347); note: potency is the fitted concentration of half-maximal effect; nearly all actives have a fitted effect of over 60% in size
# In short: as §1
# [12] = SW1088 Cancer Cell Toxicity qHTS against the NCATS CANVASS Library (AID 1347350); note: potency is the fitted concentration of half-maximal effect; nearly all actives have a fitted effect of over 75% in size
# In short: as §1
# [13] = A2780 Cisplatin Sensitive Ovarian Cancer Cell Toxicity qHTS against the NCATS CANVASS Library (AID 1347353)
# In short: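 Cells are plated at 750 per well and rest for 4 hours. Compounds are added across eleven concentrations, and incubated 72 hours before ATP is quantified by luminescence.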
# [14] = UWB1.289-WTBRCA1 Cancer Cell Toxicity qHTS against the NCATS CANVASS Library (AID 1347354); note: potency is the fitted concentration of half-maximal effect
# In short: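 First, 1000 cells go into each well and rest for 4 hours. Next, an 11-point dilution range is pinned in. Plates then incubate 72 hours before CellTiter-Glo addition and luminescence reading.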
# [15] = HEK293 18hr Apoptosis Induction qHTS against the NCATS CANVASS Library (AID 1347357); note: potency is the fitted concentration of half-maximal effect
# In short: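 Cells seeded at 500/well in DMEM + 10% FBS. Compounds pinned, 11 concentrations. 18 h, 37 degrees C/5% CO2. Caspase-Glo 3/7 added, 15 min RT dark, luminescence read.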
# [16] = HEK293 24hr Apoptosis Induction qHTS against the NCATS CANVASS Library (AID 1347359); note: potency is the fitted concentration of half-maximal effect
# In short: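 Caspase-3/7 activation measured as luminescence from the DEVD-based Caspase-Glo reagent, 15 min at room temperature, following 24-hour compound treatment of HEK293 cells.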
# [17] = KB-8-5-11 Cancer Cell Toxicity qHTS against the NCATS CANVASS Library (AID 1347364); settings: activity change, negative = toxicity: at 46.1 µM (top of the series); note: potency is the fitted concentration of half-maximal effect; nearly all actives have a fitted effect of over 75% in size
# In short: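 Terse: KB-8-5-11, 500 cells/well, 72 hr, 37C/5% CO2, 11-pt titration, CellTiter-Glo readout; confirmatory runs ± 1uM tariquidar in medium.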
# [18] = MCF7 Cancer Cell Toxicity qHTS against the NCATS CANVASS Library (AID 1347369); settings: activity change, negative = cytotoxicity: at 46 µM (top of the series); note: potency is the fitted concentration of half-maximal effect
# In short: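 Cells seeded at 500/well, then compound pinned. Plates incubated 72 hr at 37C, 5% CO2. CellTiterGlo added; luminescence read.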
# [19] = qHTS for H2AX Agonists against the NCATS CANVASS Library (AID 1347378);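 note: phospho-H2AX S139 level in CHO-K1 lysates by TR-FRET emission ratio; potency is the fitted concentration of half-maximal effect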
# In short: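 CHO-K1, 1000 cells/well, o/n 37C; cpd several conc, 3 hr 37C, 0.76% DMSO; lyse 30 min RT; cryptate anti-pH2AX(S139) + d2 anti-H2AX, 24 hr RT; HTRF 665/620.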
# [20] = Cytotoxicity qHTS for assessment of Hepg2 cells membrane integrity screened against the NCATS CANVASS Library (AID 1347387); note: potency is the fitted concentration of half-maximal effect
# In short: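 Cells were seeded at 2000 per well and left overnight to attach. Compounds were pin-transferred to give 0.59 nM - 46 uM in an 11-point series and incubated 5 hr at 37C. CytoTox-ONE reagent was added and, after 10 min at room temperature, fluorescence (ex 560, em 590 nm) was read.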
# [21] = qHTS for activators of dead-cell proteases activity screened against the NCATS CANVASS Library (AID 1347392);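 note: luminescence from protease leaking out of membrane-damaged cells cleaving impermeant substrate; potency is the fitted concentration of half-maximal effect; rising signal means more cytotoxicity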
# In short: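 Luminescent dead-cell protease readout (AAF-aminoluciferin, 15 min, room temperature) after 5 h compound treatment of HepG2 cells (2000/well, pre-attached 18 h). Eleven concentrations.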
# [22] = Vero-766 cells viability qHTS against the NCATS CANVASS Library: Counterscreen for Zika virus inhibition assay (AID 1347394); settings: Vero 766 viability, CellTiter-Glo luminescence, 72 h; activity change, negative = cytotoxic: at 46.1 µM (top of the series)
# In short: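 Vero 766, no virus; 1000 cells/well; o/n attach; cpd 11-pt; 72 h, 37C, 5% CO2; CTG luminescence; cell-free media wells = 100% inhibition.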
# [23] = Viability qHTS for inhibitors of the SERCaMP assay screened against the NCATS CANVASS Library (AID 1347400); note: potency is the fitted concentration of half-maximal effect; nearly all actives have a fitted effect of over 70% in size
# In short: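 Seed SH-SY5Y-GLuc SERCaMP MJH297 cells at 1000 per well, incubate 4 h, add compounds across an 11-point range, incubate 48 h at 37C, then add CellTiter-Glo and read luminescence.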
# Tags give direction and shape of the fitted curve.
structure (smiles),measurement,setting,value
C=C[C@](Cl)(CBr)CCC=C(C)C,Potency,[1],"inconclusive: 29.8 µM [cytotoxic, single point]"
same,Potency,[2],"inconclusive: 29.8 µM [cytotoxic, single point]"
same,Potency,[3],inactive
same,Potency,[4],"inconclusive: 29.6 µM [cytotoxic, single point]"
same,Potency,[5],inactive
same,Potency,[6],"inconclusive: 11.7 µM [rising, single point]"
same,Potency,[7],"inconclusive: 43.2 µM [inhibitor, partial curve, poor fit]"
same,Potency,[8],"inconclusive: 16.6 µM [activator, partial curve]"
same,"activity change, negative = inhibition",[9],inconclusive: 2.68% [inhibitor]
same,Potency,[10],inactive
CC1=CC2=C[C@H](C)C[C@@]23OC(=C(C)C3=O)CC(C)(C)/C=C/C1=O,Potency,[1],active: 0.838 µM
same,Potency,[11],"inconclusive: 0.941 µM [cytotoxic, full curve, poor fit]"
same,Potency,[2],active: 2.11 µM
same,Potency,[12],active: 5.95 µM
same,Potency,[13],active: 0.209 µM
same,Potency,[14],active: 11.8 µM
same,Potency,[15],"inconclusive: 1.18 µM [activator, single point]"
same,Potency,[16],"inconclusive: 1.18 µM [activator, single point]"
same,Potency,[17],active: 2.09 µM
same,Potency,[18],active: 1.65 µM
same,Potency,[5],active: 5.29 µM
same,Potency,[19],active: 1.72 µM
same,Potency,[7],active: 1.09 µM
same,Potency,[20],"inconclusive: 11.7 µM [rising, partial curve]"
same,Potency,[8],active: 0.0741 µM
same,Potency,[21],"inconclusive: 8.31 µM [activator, full curve]"
same,Potency,[22],"inconclusive: 8.31 µM [cytotoxic, partial curve]"
same,Potency,[10],"inconclusive: 13.1 µM [inhibitor, single point]"
same,Potency,[23],active: 1.52 µM
